The values that follow come from article PMC10382678.

Protein sequences, listed by entry. Tags and fused reporters are not part of them. Residues count along the entry.
UniProt O35167, residues 23-458: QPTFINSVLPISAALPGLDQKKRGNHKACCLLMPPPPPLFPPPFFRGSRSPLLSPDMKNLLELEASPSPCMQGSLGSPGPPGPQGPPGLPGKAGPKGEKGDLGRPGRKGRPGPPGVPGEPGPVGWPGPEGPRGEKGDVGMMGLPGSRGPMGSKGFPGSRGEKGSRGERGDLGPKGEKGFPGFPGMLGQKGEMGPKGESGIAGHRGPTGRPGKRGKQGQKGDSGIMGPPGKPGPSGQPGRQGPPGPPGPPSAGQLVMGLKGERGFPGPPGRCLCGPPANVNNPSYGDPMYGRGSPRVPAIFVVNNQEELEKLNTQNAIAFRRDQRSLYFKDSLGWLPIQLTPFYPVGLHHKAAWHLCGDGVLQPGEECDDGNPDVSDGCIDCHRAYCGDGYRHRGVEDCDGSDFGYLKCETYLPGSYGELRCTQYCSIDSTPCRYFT
UniProt Q9QYP1, residues 21-1723: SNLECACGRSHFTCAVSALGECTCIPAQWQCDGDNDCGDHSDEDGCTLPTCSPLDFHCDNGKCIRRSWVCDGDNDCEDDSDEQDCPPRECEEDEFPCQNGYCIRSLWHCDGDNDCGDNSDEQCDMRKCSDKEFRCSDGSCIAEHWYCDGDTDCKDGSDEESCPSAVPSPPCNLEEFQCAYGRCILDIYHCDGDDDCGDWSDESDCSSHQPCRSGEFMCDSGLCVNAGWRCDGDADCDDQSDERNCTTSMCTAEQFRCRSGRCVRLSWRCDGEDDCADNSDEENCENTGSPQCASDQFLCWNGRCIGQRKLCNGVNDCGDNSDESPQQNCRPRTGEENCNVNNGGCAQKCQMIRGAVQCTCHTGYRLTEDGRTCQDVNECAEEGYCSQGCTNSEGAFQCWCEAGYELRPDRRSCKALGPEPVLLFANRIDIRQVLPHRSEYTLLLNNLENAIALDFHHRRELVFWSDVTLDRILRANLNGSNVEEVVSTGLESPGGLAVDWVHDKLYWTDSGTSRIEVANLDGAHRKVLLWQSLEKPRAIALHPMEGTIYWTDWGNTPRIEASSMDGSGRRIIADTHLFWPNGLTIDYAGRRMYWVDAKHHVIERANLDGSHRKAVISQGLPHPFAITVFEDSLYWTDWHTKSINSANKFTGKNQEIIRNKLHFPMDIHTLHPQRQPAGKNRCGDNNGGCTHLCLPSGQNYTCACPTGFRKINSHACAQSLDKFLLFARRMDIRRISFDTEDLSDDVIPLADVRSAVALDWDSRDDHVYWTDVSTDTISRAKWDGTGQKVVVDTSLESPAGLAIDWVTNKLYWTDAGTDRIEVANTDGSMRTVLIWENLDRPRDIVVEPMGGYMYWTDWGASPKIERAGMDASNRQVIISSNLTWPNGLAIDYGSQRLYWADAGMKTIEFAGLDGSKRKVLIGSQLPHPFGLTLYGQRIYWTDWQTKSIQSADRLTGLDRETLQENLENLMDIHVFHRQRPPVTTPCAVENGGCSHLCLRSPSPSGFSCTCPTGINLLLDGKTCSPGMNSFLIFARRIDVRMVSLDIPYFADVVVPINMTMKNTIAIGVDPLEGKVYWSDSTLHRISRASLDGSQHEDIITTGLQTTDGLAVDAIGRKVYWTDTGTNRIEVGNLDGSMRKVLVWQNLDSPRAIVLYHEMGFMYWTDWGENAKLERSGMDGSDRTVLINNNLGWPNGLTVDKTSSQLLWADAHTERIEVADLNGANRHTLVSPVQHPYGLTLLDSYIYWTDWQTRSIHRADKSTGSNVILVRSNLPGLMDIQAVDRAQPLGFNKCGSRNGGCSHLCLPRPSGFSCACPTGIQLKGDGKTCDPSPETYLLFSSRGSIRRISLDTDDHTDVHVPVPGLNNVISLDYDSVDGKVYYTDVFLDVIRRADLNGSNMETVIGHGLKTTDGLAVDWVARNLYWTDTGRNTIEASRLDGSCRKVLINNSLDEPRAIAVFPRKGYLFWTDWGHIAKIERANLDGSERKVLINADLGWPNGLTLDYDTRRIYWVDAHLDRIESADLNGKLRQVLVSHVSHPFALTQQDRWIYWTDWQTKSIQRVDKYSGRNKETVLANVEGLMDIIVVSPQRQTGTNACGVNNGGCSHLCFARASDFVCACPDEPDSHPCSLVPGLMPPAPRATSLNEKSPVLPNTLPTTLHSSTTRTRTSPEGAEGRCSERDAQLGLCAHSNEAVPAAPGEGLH

The target of assay [1] is ColQ-Flag (rat collagen Q, ColQ1a, with a Flag epitope after amino acid 26) (rat) (UniProt O35167). Briefly: condition: also at a six times higher concentration than ectoLRP4-AP (not shown); ELISA; plate-binding assay (modified ELISA): ColQ-Flag or AdipoQ-Flag from HEK 293T lysates immobilised on anti-Flag precoated wells; AP or AP fusion proteins in conditioned media (10 to 100 nM, equal AP activity) in TBS-0.05% Tween, 1 mM MgCl2, overnight at 4 °C; bound AP activity read with pNPP at …. (In general: An ELISA detects its analyte on a solid surface through an enzyme-linked reagent.)

The target is the same in assay [2]. Briefly: co-sedimentation; extracts (0.8 M NaCl, 1% CHAPS) of HEK 293T cells cotransfected with ColQ-Flag and AChE, run on 5 to 20% sucrose gradients with 0.8 M NaCl, 10 mM EDTA, 0.2% Brij-97; fractions assayed for AChE activity; profile not shown.
In assay [3] the target is ectoLRP4-Myc (extracellular domain of rat LRP4 fused to one Myc tag followed by a 6xHis tag) (rat) (UniProt Q9QYP1). The assay is described as follows: pull-down; ectoLRP4-Myc, ectoLRP6-Myc or ectoMuSK-Myc from conditioned media immobilised on protein G magnetic beads precoated with anti-Myc; incubated with 0.25 Ellman units of sucrose gradient-purified AChE-ColQ (A12) or AChE (G1), 4 °C overnight; bound AChE activity measured by the Ellman method; only the binder purified. (DTNB colorimetry detects thiols as they appear.)

Assay [4] addresses ColQ-Flag (rat collagen Q, ColQ1a, with a Flag epitope after amino acid 26) (rat) (UniProt O35167). Briefly: SPR; Biacore 3000, CM5 chip with covalently coupled anti-Flag M2; ColQ-Flag from HEK 293T lysates immunocaptured (about 3900 RU); single injection of purified analyte at 750 nM in HBS-EP; reference surface (untransfected lysate) subtracted; response 30 s into dissociation; only the binder purified. (In general: Surface plasmon resonance follows binding to a sensor surface in real time, without labels.)

No constants are given. Whether binding was seen depends on the method and setting. For some of these results: In cells and extracts the contact can be indirect. Some results given as binding are weak or reduced against the parent protein; the word gives no strength. For some of these results: Tags and fused reporters may be left off the sequences shown.

B1: ectoMuSK-AP (rat MuSK ectodomain fused to alkaline phosphatase) (domain or fragment, UniProt Q62838 22-494)
chain: EKLPKAPVITTPLETVDALVEEVATFMCAVESYPQPEISWTRNKILIKLFDTRYSIRENGQLLTILSVEDSDDGIYCCTANNGVGGAVESCGALQVKMKPKITRPPINVKIIEGLKAVLPCTTMGNPKPSVSWIKGDSALRENSRIAVLESGSLRIHNVQKEDAGQYRCVAKNSLGTAYSKLVKLEVEVFARILRAPESHNVTFGSFVTLRCTAIGMPVPTISWIENGNAVSSGSIQENVKDRVIDSRLQLFITKPGLYTCIATNKHGEKFSTAKAAATVSIAEWSKSQKESKGYCAQYRGEVCDAVLVKDSLVFFNTSYPDPEEAQELLIHTAWNELKAVSPLCRPAAEALLCNHLFQECSPGVLPTPMPICREYCLAVKELFCAKEWLAMEGKTHRGLYRSGMHFLPVPECSKLPSMHQDPTACTRLPYLDYKKENITTFPSITSSKPSVDIPNLPASTSSFAVSPAYSMT
Regarding B1, the binding entry in assay [1] was “no binding”.

B2: AChE globular G1 forms (monomeric, ColQ-free acetylcholinesterase) (enzyme, UniProt P37136 32-614)
chain: EGREDPQLLVRVRGGQLRGIRLKAPGGPVSAFLGIPFAEPPVGSRRFMPPEPKRPWSGILDATTFQNVCYQYVDTLYPGFEGTEMWNPNRELSEDCLYLNVWTPYPRPTSPTPVLIWIYGGGFYSGASSLDVYDGRFLAQVEGTVLVSMNYRVGTFGFLALPGSREAPGNVGLLDQRLALQWVQENIAAFGGDPMSVTLFGESAGAASVGMHILSLPSRSLFHRAVLQSGTPNGPWATVSAGEARRRATLLARLVGCPPGGAGGNDTELISCLRTRPAQDLVDHEWHVLPQESIFRFSFVPVVDGDFLSDTPDALINTGDFQDLQVLVGVVKDEGSYFLVYGVPGFSKDNESLISRAQFLAGVRIGVPQASDLAAEAVVLHYTDWLHPEDPAHLRDAMSAVVGDHNVVCPVAQLAGRLAAQGARVYAYIFEHRASTLTWPLWMGVPHGYEIEFIFGLPLDPSLNYTVEERIFAQRLMQYWTNFARTGDPNDPRDSKSPRWPPYTTAAQQYVSLNLKPLEVRRGLRAQTCAFWNRFLPKLLSATDTLDEAERQWKAEFHRWSSYMVHWKNQFDHYSKQERCSDL
With B2, the binding result in assay [2] is reported as “binds”; in assay [3], “no binding (tested: 0.25 Ellman unit)”.

B3: purified recombinant mouse ectoMuSK Fc Chimera (R&D Systems) (Fc fusion, UniProt Q61006 22-494)
chain: EKLPKAPVITTPLETVDALVEEVATFMCAVESYPQPEISWTRNKILIKLFDTRYSIRENGQLLTILSVEDSDDGIYCCIANNGVGGAVESCGALQVKMKPKITRPPINVKIIEGLKAVLPCTTMGNPKPSVSWIKGDNALRENSRIAVLESGSLRIHNVQKEDAGQYRCVAKNSLGTAYSKLVKLEVEVFARILRAPESHNVTFGSFVTLRCTAIGIPVPTISWIENGNAVSSGSIQESVKDRVIDSRLQLFITKPGLYTCIATNKHGEKFSTAKAAATVSIAEWSKSQKDSQGYCAQYRGEVCDAVLAKDALVFFNTSYRDPEDAQELLIHTAWNELKAVSPLCRPAAEALLCNHLFQECSPGVVPTPMPICREYCLAVKELFCAKEWQAMEGKAHRGLYRSGMHLLPVPECSKLPSMHRDPTACTRLPYLDYKKENITTFPSITSSRPSADIPNLPASTSSFAVSPAYSMT
Turning to B3, in assay [4], the binding result is “no binding (tested: 750 nM)”.
